# Several values for one entry are separate records, joined by “and”; a condition that tells them apart may be missing. Equal entries are not always repeated. This list was built around the results that the source calls inconclusive (neither active nor inactive); the mix of calls is not that of the screen. For part of these data: Potencies of inconclusive entries are doubtful fits and often do not repeat. Activity calls are given as the source filed them. Calls follow the shape of the dose curve; as a rule, active = well fitted curve in the direction sought with a large enough effect; inconclusive = small, poorly fitted or top-dose-only effect, or another doubt; inactive = no such curve, though single readings can be large; an effect the other way counts as inactive or inconclusive.
# Legend:
# HEK293 = assay: Cytotoxic Profiling of Annotated Libraries Using Quantitative High-Throughput Screening (AID 1296008); details: Five cell lines viability, CellTiter-Glo ATP luminescence, 48-72 h; max response: active compounds read low; also: nearly all actives have a fitted effect of over 60% in size; as to max response: % is scaled to controls: 0 for no effect and ±100 for the full control effect
# How it was run: (§1)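 Cells exposed to compounds for 48 or 72 hr at 37 degrees Celsius. Viability read as ATP-coupled luminescence with CellTiter-Glo after 10 min at room temperature.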
# HaCat = assay: as above; details: Five cell lines viability, CellTiter-Glo ATP luminescence, 48-72 h; max response: active compounds read low
# How it was run: as §1
# KB-3-1 = assay: as above; details: Five cell lines viability, CellTiter-Glo ATP luminescence, 48-72 h; max response: active compounds read low
# How it was run: as §1
# NIH3T3 = assay: as above; details: Five cell lines viability, CellTiter-Glo ATP luminescence, 48-72 h; max response: active compounds read low
# How it was run: as §1
# CASKI = assay: Primary qHTS to identify gynecologic anti-cancer compounds using libraries of approved drugs and bioactive compounds (AID 1345084); details: Gynecologic cancer cell panel viability, ATPlite luminescence, 48 h; activity change, negative = cytotoxicity: at 57.5 µM (top of the series); also: nearly all actives have a fitted effect of over 55% in size; as to activity change, negative = cytotoxicity: % is scaled to controls: 0 for no effect and ±100 for the full control effect
# How it was run: (§2)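 Cells, 1,000 per well, were allowed to settle for 16 h at 37 C before compound addition. Five concentrations were tested for 48 h, and viability was read by ATPlite luminescence after 15 min at room temperature.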
# Es-2 = assay: as above; details: Gynecologic cancer cell panel viability, ATPlite luminescence, 48 h; series mostly up to 57.5 µM
# How it was run: as §2
# OV90 = assay: as above; details: Gynecologic cancer cell panel viability, ATPlite luminescence, 48 h; series mostly up to 57.5 µM
# How it was run: as §2
# PA-1 = assay: as above; details: Gynecologic cancer cell panel viability, ATPlite luminescence, 48 h; series mostly up to 57.5 µM
# How it was run: as §2
# Tov-21-G = assay: as above; details: Gynecologic cancer cell panel viability, ATPlite luminescence, 48 h; activity change, negative = cytotoxicity: at 57.5 µM (top of the series)
# How it was run: as §2
# [1] = P-glycoprotein substrates identified in KB-8-5-11 adenocarcinoma cell line, qHTS therapeutic library screen (AID 1346987); also: nearly all actives have a fitted effect of over 65% in size
# How it was run: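 Luminescence from CellTiter-Glo, read 5 min after addition, quantified survival of KB-8-5-11 (P-gp-overexpressing) cells exposed to compounds for 72 h. AC50 was derived from concentration-response curves.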
# [2] = tested on: Zika virus NS2B-NS3 protease (unlinked complex); assay: Primary screen GU Rhodamine qHTS for Zika virus inhibitors: Unlinked NS2B-NS3 protease assay (AID 1347159); also: nearly all actives have a fitted effect of over 60% in size
# How it was run: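 Unlinked NS2B/NS3, 25 nM; Rhod110 peptide, 1.5 microM; compounds, up to 114 microM. Reaction run 15 min at RT in 10 mM Tris-HCl pH 8.0, 0.01% Tween 20; kinetic fluorescence change fitted with a 4-parameter Hill model.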
# [3] = Primary qHTS for inhibitors of nuclear receptor binding SET domain protein 2 (NSD2) in an isogenic RCH-ACV NSD2 p.E1099K mutant (9B) (AID 1645876); also: nearly all actives have a fitted effect of over 70% in size
# [4] = Primary qHTS for inhibitors of nuclear receptor binding SET domain protein 2 (NSD2) in an RCH-ACV wild type WT cells (2C) (AID 1645877); details: activity change, negative = cell killing: at 44.9 µM (top of the series); also: nearly all actives have a fitted effect of over 70% in size
# C33A = assay: Primary qHTS to identify gynecologic anti-cancer compounds using libraries of approved drugs and bioactive compounds (AID 1345084); details: Gynecologic cancer cell panel viability, ATPlite luminescence, 48 h; series mostly up to 57.5 µM; also: nearly all actives have a fitted effect of over 55% in size; as to activity change, negative = cytotoxicity: % is scaled to controls: 0 for no effect and ±100 for the full control effect
# How it was run: as §2
# HeLa = assay: as above; details: Gynecologic cancer cell panel viability, ATPlite luminescence, 48 h; series mostly up to 57.5 µM
# How it was run: as §2
# JEG-3 = assay: as above; details: Gynecologic cancer cell panel viability, ATPlite luminescence, 48 h; series mostly up to 57.5 µM
# How it was run: as §2
# SKOV3 = assay: as above; details: Gynecologic cancer cell panel viability, ATPlite luminescence, 48 h; series mostly up to 57.5 µM
# How it was run: as §2
# Tov112D = assay: as above; details: Gynecologic cancer cell panel viability, ATPlite luminescence, 48 h; activity change, negative = cytotoxicity: at 57.5 µM (top of the series)
# How it was run: as §2
# CAOV3 = assay: as above; details: Gynecologic cancer cell panel viability, ATPlite luminescence, 48 h; series mostly up to 57.5 µM
# How it was run: as §2
# Hek293T = assay: as above; details: Gynecologic cancer cell panel viability, ATPlite luminescence, 48 h, control line for the selectivity index; series mostly up to 57.5 µM
# How it was run: as §2
# Potency is read from the fitted curve at half-maximal effect; tags tell the direction and shape of the fitted curve.
smiles,measurement,setting,value
Cc1ccc(NC(=O)c2ccc(CN3CC[C@H](N(C)C)C3)c(C(F)(F)F)c2)cc1Nc1nccc(-c2cncnc2)n1,Potency,HEK293,active: 5.63 µM
same,Potency,HaCat,"inconclusive: 14.2 µM [inhibitor, single point]"
same,max response,KB-3-1,inactive: -1.65%
same,Potency,NIH3T3,"inconclusive: 8.93 µM [inhibitor, single point]"
same,Potency,CASKI,"inconclusive: 11.2 µM [cytotoxic, single point]"
same,Potency,Es-2,"inconclusive: 10 µM [cytotoxic, single point]"
same,Potency,OV90,active: 5.01 µM
same,Potency,PA-1,"inconclusive: 0.398 µM [cytotoxic, full curve]"
same,Potency,Tov-21-G,inactive
CN(Cc1ccc(C(=O)O)cc1)c1ccc(OCc2c(-c3c(Cl)cccc3Cl)noc2C2CC2)nc1C(F)(F)F,Potency,[1],"inconclusive: 29.1 µM [inhibitor, single point]"
same,Potency,[2],active: 2 µM
same,Potency,[3],"inconclusive: 16.3 µM [inhibitor, single point]"
same,Potency,[4],"inconclusive: 23 µM [inhibitor, single point]"
same,Potency,HEK293,"inconclusive: 20.6 µM [inhibitor, single point]"
same,Potency,HaCat,"inconclusive: 1.64 µM [inhibitor, partial curve, poor fit]"
same,Potency,KB-3-1,"inconclusive: 29.1 µM [inhibitor, single point]"
same,Potency,NIH3T3,"inconclusive: 23.1 µM [inhibitor, single point]"
CNc1nc(Nc2ccc(C(=O)N3CCOCC3)cc2OC)nc2[nH]cc(Cl)c12,Potency,HEK293,"inconclusive: 2.06 µM [inhibitor, full curve, poor fit]"
same,Potency,HaCat,"inconclusive: 29.1 µM [inhibitor, single point]"
same,Potency,KB-3-1,active: 10.3 µM
same,Potency,NIH3T3,"inconclusive: 0.651 µM [inhibitor, full curve]"
same,Potency,PA-1,"inconclusive: 10 µM [cytotoxic, partial curve]"
CC1OC2O[C@H]3[C@@H](OCC(O)[C@H]3O)OC(=O)C34CCC(C)(C)CC3C3=CCC5C6(C)CC(O)C(OC7OC(CO)C(O)C(O)C7O[C@@H]7OC[C@H](OC(=O)CC(C)(O)CC(=O)OC1C(OC1OCC(O)C(O)C1O)C2O)[C@@H](O)[C@H]7O)C(C)(CO)C6CCC5(C)C3(C)CC4 (stereo partly specified),Potency,[1],"inconclusive: 8.93 µM [inhibitor, single point]"
same,Potency,HEK293,"inconclusive: 14.2 µM [inhibitor, single point]"
same,Potency,HaCat,"inconclusive: 0.0709 µM [inhibitor, full curve, poor fit]"
same,Potency,KB-3-1,"inconclusive: 8.93 µM [inhibitor, single point]"
same,max response,NIH3T3,inactive: -22%
same,Potency,C33A,"inconclusive: 17.8 µM [cytotoxic, single point]"
same,Potency,Es-2,"inconclusive: 11.2 µM [cytotoxic, partial curve, poor fit]"
same,Potency,HeLa,inactive
same,Potency,JEG-3,"inconclusive: 8.91 µM [rising, single point]"
same,Potency,OV90,"inconclusive: 11.2 µM [cytotoxic, single point]"
same,Potency,PA-1,"inconclusive: 10 µM [cytotoxic, single point]"
same,Potency,SKOV3,"inconclusive: 10 µM [cytotoxic, single point]"
same,Potency,Tov-21-G,"inconclusive: 12.6 µM [cytotoxic, single point]"
same,Potency,Tov112D,"inconclusive: 8.91 µM [cytotoxic, partial curve, poor fit]"
CON(C)C(=O)N1N=C(c2cc(F)ccc2F)S[C@@]1(CCCN)c1ccccc1,Potency,[1],active: 0.164 µM
same,Potency,[4],active: 6.5 nM and active: 13.2 nM
same,Potency,HEK293,inconclusive: 0.0009 µM [inhibitor]
same,Potency,HaCat,"inconclusive: 29.1 nM [inhibitor, full curve] and inconclusive: 3.3 nM [inhibitor, full curve, poor fit]"
same,Potency,KB-3-1,active: 0.0082 µM
same,Potency,NIH3T3,"inconclusive: 0.0012 µM [inhibitor, full curve, poor fit]"
same,Potency,CAOV3,"inconclusive: 50.1 µM [cytotoxic, partial curve, poor fit]"
same,Potency,CASKI,inconclusive: 0.112 µM
same,Potency,Es-2,inconclusive: 10 µM
same,Potency,HeLa,inconclusive: 0.001 µM
same,Potency,Hek293T,inconclusive: 2.82 µM
same,Potency,JEG-3,inconclusive: 22.4 µM
same,Potency,PA-1,inconclusive: 39.8 µM
same,Potency,Tov-21-G,inconclusive: 7.94 µM
same,Potency,Tov112D,inconclusive: 0.1 µM
NC(=O)CCCSc1nc(N)nc(-c2c(Cl)cc3c4c(cccc24)COC3)n1,Potency,[1],"inconclusive: 0.326 µM [inhibitor, full curve]"
same,Potency,HEK293,"inconclusive: 0.164 µM [inhibitor, full curve, poor fit]"
same,Potency,HaCat,active: 0.291 µM
same,Potency,KB-3-1,"inconclusive: 0.13 µM [inhibitor, full curve, poor fit]"
same,Potency,C33A,active: 0.891 µM
same,Potency,CAOV3,"inconclusive: 1.26 µM [cytotoxic, full curve, poor fit]"
same,Potency,CASKI,"inconclusive: 3.16 µM [cytotoxic, full curve]"
same,Potency,Es-2,"inconclusive: 1 µM [cytotoxic, full curve]"
same,Potency,Hek293T,"inconclusive: 0.501 µM [cytotoxic, full curve]"
same,Potency,JEG-3,"inconclusive: 1.12 µM [cytotoxic, full curve]"
same,Potency,OV90,active: 0.708 µM
same,Potency,PA-1,active: 0.891 µM
same,Potency,SKOV3,"inconclusive: 2.24 µM [cytotoxic, full curve, poor fit]"
same,Potency,Tov-21-G,active: 1 µM
same,Potency,Tov112D,"inconclusive: 0.794 µM [cytotoxic, full curve]"

# — PubChem BioAssay (NCATS)
